According to the RNAGym collection of RNA variant scans (doi:10.7554/elife.90254):
Read counts are not given, so values of variants with three or more changes are uncertain.

B1: LINE1-mini (parent)
chain: GGCAGAGCUCAACACAGCGUGGCAAAGUGGCUGUGGCUAGACUGCC

Variants of: B1
Assay: self-cleavage, relative activity (ratio to wild type); higher = more cleavage; in vitro, sequencing; the parent is a self-cleaving ribozyme
C8A C23A U32C showed a self-cleavage of 0.08.
For G1A C3U C10A U38G G44A, the self-cleavage was 0.15.
With G5U A12C C13A G44C the self-cleavage was 0.
In the case of A14G G19C U32G, the self-cleavage is reported as 0.06.
A16U C42G G44A gave a self-cleavage of 0.02.
Variant C3G C45A C46U has a self-cleavage of 0.06.
For G7U G40U C45U, the self-cleavage was 0.16.
A6U A11G A26U C31A U32G showed a self-cleavage of 0.02.
Variant C23A G40U C46U has a self-cleavage of 0.03.
Work on G19U G27U C42A G44A yielded a self-cleavage of 0.03.
Work on C3G A6U G21A C23U G35C yielded a self-cleavage of 0.17.
For C13A C23U A26G, the self-cleavage was 0.13.
For G2A C10A G44U, the self-cleavage was 0.08.
C8U C31G C46U gave a self-cleavage of 0.13.
Variant C13U G30C U43A has a self-cleavage of 0.09.
Variant G1A C10A G29U C46U has a self-cleavage of 0.05.
With G7U C8U U20C A25C G40U the self-cleavage was 0.24.
A16G G17U U20A U34G gave a self-cleavage of 0.07.
With A12C C31U C37G the self-cleavage was 0.02.
In the case of G2C C15G C37A, the self-cleavage is reported as 0.02.
Variant A11U C13A C15A A16U has a self-cleavage of 0.02.
Work on C3U A14C U20A C46A yielded a self-cleavage of 0.03.
In the case of G30U G40A U43G, the self-cleavage is reported as 0.12.
For A12U U32G G40U, the self-cleavage was 0.08.
A24U U32C C42G G44C gave a self-cleavage of 0.03.
Variant C10U A39C C46G has a self-cleavage of 0.04.
Variant C3A C8A C31U A39U C42A has a self-cleavage of 0.26.
Work on G7A G19C C46A yielded a self-cleavage of 0.25.
With A6C G40U U43A the self-cleavage was 0.04.
With A6C U28A G40C the self-cleavage was 0.05.
With C3A U9A G21C G29C C31A A39C the self-cleavage was 0.03.
In the case of G2U C8U G44A, the self-cleavage is reported as 0.09.
For C10A C18G C45U, the self-cleavage was 0.19.
For G2U C8U C15A C31G G40U, the self-cleavage was 0.01.
Variant A14C G17C G33C C37G G44C has a self-cleavage of 0.01.
Variant G5C G22C C45U has a self-cleavage of 0.06.
Work on C8U C15U U32G yielded a self-cleavage of 0.05.
Work on C3G A4U C10G C13G G40A yielded a self-cleavage of 0.01.
For G2C C13U A25U G29C U32A, the self-cleavage was 0.02.
For C23U G27A U38G A39G G40C, the self-cleavage was 0.02.
C10U A12G C42G gave a self-cleavage of 0.02.
G2U A24G G36A showed a self-cleavage of 0.03.
A14C G33C U43A G44U gave a self-cleavage of 0.01.
Work on C10A G27A G30A C37A yielded a self-cleavage of 0.01.
G1A C3U C8A C10A gave a self-cleavage of 0.13.
A14C G29U U34G gave a self-cleavage of 0.06.
For C31U G35U G36C G40A C45U, the self-cleavage was 0.12.
Variant C15A A26U G35U C46A has a self-cleavage of 0.04.
For C8U A11C A26G U38C, the self-cleavage was 0.01.
G5C G17A U34C C37G gave a self-cleavage of 0.04.
Work on C8G C31A G36A yielded a self-cleavage of 0.02.
C3A A14U G44A gave a self-cleavage of 0.22.
Work on A16G G17C U28C G33A yielded a self-cleavage of 0.03.
With A6C A12C A25G U32A G35A U38C the self-cleavage was 0.01.
With A4U A11C A24U G44U the self-cleavage was 0.03.
Work on G33C G40U C46A yielded a self-cleavage of 0.07.
In the case of C3U G7U G44A, the self-cleavage is reported as 0.03.
Variant C18G G19C C31A G36U has a self-cleavage of 0.03.
In the case of A11G A12C C13A A16C G19C G29A G40A G44A, the self-cleavage is reported as 0.02.
C13A G21C G30C U32G U34G C37U showed a self-cleavage of 0.02.
In the case of G1U G5C A11C C15A G19A G30U, the self-cleavage is reported as 0.01.
G1A A4G C10A G33A U43C showed a self-cleavage of 0.02.
For U20A G30A G40U, the self-cleavage was 0.02.
Variant C13A C18G C37A G44C has a self-cleavage of 0.04.
With G5A G29U G35C the self-cleavage was 0.09.
In the case of C10G C13G G21A, the self-cleavage is reported as 0.06.
Work on C3A G19U U20C U28C C31A U32C yielded a self-cleavage of 0.01.
G7A G33C U34A C42U gave a self-cleavage of 0.13.
Work on G2A G5U G7C U28A G35C A41C yielded a self-cleavage of 0.02.
Variant A14C A24U G35U A41U U43G has a self-cleavage of 0.08.
C8A G19C U20A C23A A24G C31U showed a self-cleavage of 0.01.
U9A C15G C31A gave a self-cleavage of 0.1.
Variant C23U G29A G30U G36U has a self-cleavage of 0.17.
Work on C8G G27C G29C yielded a self-cleavage of 0.04.
In the case of U20G G27U C31A G33U, the self-cleavage is reported as 0.05.
In the case of A6C G7U C8U, the self-cleavage is reported as 0.27.
G19U G29U G44C showed a self-cleavage of 0.09.
G1U G5U U34G showed a self-cleavage of 0.03.
In the case of A14C C18A U20A C23U U38A, the self-cleavage is reported as 0.08.
For A14G G35U G44U, the self-cleavage was 0.13.
Work on G1A A4C C23A A25G yielded a self-cleavage of 0.06.
Variant G21A G22C G30A G35A has a self-cleavage of 0.12.
In the case of G17U U34G G35U C46G, the self-cleavage is reported as 0.02.
Variant G17A G35C G44A has a self-cleavage of 0.05.
With G19A G29U G35C the self-cleavage was 0.15.
Work on G7U G29A A41U yielded a self-cleavage of 0.45.
Variant G5U A24U G33A has a self-cleavage of 0.02.
In the case of C15G G33U G35U C46A, the self-cleavage is reported as 0.01.
Work on C8G G19U G40C G44U C46G yielded a self-cleavage of 0.
In the case of G7A C18A A24G U28C U38C, the self-cleavage is reported as 0.11.
Work on A4C A11U C15G C46G yielded a self-cleavage of 0.01.
With G2U A11C G19C the self-cleavage was 0.02.
G5U C13U U20C A24G C46U showed a self-cleavage of 0.03.
For A6C G19U G22A G35U G36U, the self-cleavage was 0.21.
G5U C8A G19A gave a self-cleavage of 0.26.
In the case of G1U G2U C31A, the self-cleavage is reported as 0.02.
G7A C15G G17U G21U G33C showed a self-cleavage of 0.02.
G2A G7U G17A U34G G35A C46G showed a self-cleavage of 0.06.
In the case of G1U A12U A26U A41G, the self-cleavage is reported as 0.01.
C13A U28C G36A showed a self-cleavage of 0.24.
In the case of A24C G29U G35U A41U, the self-cleavage is reported as 0.03.
For G22A G27C C46A, the self-cleavage was 0.48.
Work on G5A G17C A26C C42U U43A yielded a self-cleavage of 0.02.
In the case of A4G U9G U20G G36A, the self-cleavage is reported as 0.09.
In the case of G2U C8G U9G G29A G30U G35U U38C, the self-cleavage is reported as 0.01.
In the case of G2U A6C A16G G30U, the self-cleavage is reported as 0.06.
G2U G27U G44C showed a self-cleavage of 0.05.
With G17A A26U G40C the self-cleavage was 0.03.
Work on C10G A11U G27U G30A G35A G36A C46U yielded a self-cleavage of 0.
With A4C G7C A11U the self-cleavage was 0.02.
A16C G19C G40C C42U gave a self-cleavage of 0.05.
With G2C G27A U34G the self-cleavage was 0.01.
With G17A G21U G29U A39U the self-cleavage was 0.07.
A6G A14G U20G G21C C23A A25G U43A G44U gave a self-cleavage of 0.02.
U28A G30A G33A gave a self-cleavage of 0.11.
Work on A4C G7C U34C U38G yielded a self-cleavage of 0.04.
For A4U C10A G17U G19A, the self-cleavage was 0.02.
G2U A4G G22A C37G U43G C45A showed a self-cleavage of 0.
With C3G G21C U28C G29C C46A the self-cleavage was 0.08.
Work on G1U U9G U34A yielded a self-cleavage of 0.01.
Work on A14C C15A G30U U32C G35U yielded a self-cleavage of 0.02.
With A41U G44U C45G the self-cleavage was 0.1.
Variant G2A C13G U20G has a self-cleavage of 0.15.
Work on G5C C8A A24C G36A A39C yielded a self-cleavage of 0.41.
G19U G35C C37G gave a self-cleavage of 0.02.
For G5A A6C G19U A25U, the self-cleavage was 0.29.
A14C G30C C45A showed a self-cleavage of 0.06.
In the case of G1U A12C C18U G19C U28G, the self-cleavage is reported as 0.01.
In the case of A12C G19C C31G U34C C42U, the self-cleavage is reported as 0.05.
For G1A G5U U38C, the self-cleavage was 0.09.
A6G U9A A41U U43G C46A gave a self-cleavage of 0.19.
G5U C10A G22U A25G A26G C31A gave a self-cleavage of 0.03.
In the case of G17U G35U U38A A41U, the self-cleavage is reported as 0.01.
C23A A26G C42U gave a self-cleavage of 0.12.
Work on G5U G19C A26C G29U yielded a self-cleavage of 0.01.
Variant A12G G21C G40A has a self-cleavage of 0.02.
In the case of C23A G33U G36U G40C, the self-cleavage is reported as 0.01.
Variant G2C G29U G33A G44A has a self-cleavage of 0.33.
In the case of G27U G29A G33C, the self-cleavage is reported as 0.2.
Variant G17U A24G G29A C46G has a self-cleavage of 0.11.
In the case of G2A G5A A11C A24G U43G, the self-cleavage is reported as 0.01.
In the case of A16C A26G G27U C37G G44A, the self-cleavage is reported as 0.23.
For C13A G22A C23A A41C, the self-cleavage was 0.01.
Work on G1U G2A C37A yielded a self-cleavage of 0.07.
In the case of G17U C18A U32G U43A, the self-cleavage is reported as 0.04.
In the case of G19C U32C G35U, the self-cleavage is reported as 0.04.
Variant C8U G19A G27C G35C has a self-cleavage of 0.01.
C10U A26U U32A showed a self-cleavage of 0.04.
Work on G1C G2A A4U U28C U34A C42G yielded a self-cleavage of 0.44.
G5A C10A A11G C18A gave a self-cleavage of 0.03.
Work on C3U A14C G44C yielded a self-cleavage of 0.06.
C3U C10A A11C G17U G27A gave a self-cleavage of 0.04.
In the case of C13G G19U G21A, the self-cleavage is reported as 0.31.
G17A G21U U34A showed a self-cleavage of 0.04.
For A12U G29U G40U, the self-cleavage was 0.14.
For C3G G7C G21A A41U, the self-cleavage was 0.05.
Variant G19A U28G G35A has a self-cleavage of 0.22.
In the case of U9A G22C C37U C45A C46A, the self-cleavage is reported as 0.08.
Work on A4U A26G G33C C45U yielded a self-cleavage of 0.04.
A4U A12U U28G showed a self-cleavage of 0.16.
C18U C23U C46U gave a self-cleavage of 1.04.
Variant A12U C13A C18A C31A has a self-cleavage of 0.01.
For G29C A41C C46U, the self-cleavage was 0.07.
A6U C8U G19U G22A G29C showed a self-cleavage of 0.07.
A4G G5U C13G U43C showed a self-cleavage of 0.02.
Work on C8G G27A G35C yielded a self-cleavage of 0.04.
In the case of G19A G22A A39U, the self-cleavage is reported as 1.2.
